# Source: article PMC4336329 (PLoS ONE, 2015)
# Among all 310,000 compounds or so, about 14,000 (4.5%) showed an effect of 50% or more. The effect is printed as a negative number. Some of the results follow.
# Target: human ether-à-go-go-related gene (hERG) potassium channel (human, UniProt Q12809)
# Assay: primary screen, population patch clamp on CHO cells stably expressing hERG
# 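Note: peak tail current of the secondary pulse compared with the same well before compound.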
# Sequence of human ether-à-go-go-related gene (hERG) potassium channel (Q12809 whole entry, looked up): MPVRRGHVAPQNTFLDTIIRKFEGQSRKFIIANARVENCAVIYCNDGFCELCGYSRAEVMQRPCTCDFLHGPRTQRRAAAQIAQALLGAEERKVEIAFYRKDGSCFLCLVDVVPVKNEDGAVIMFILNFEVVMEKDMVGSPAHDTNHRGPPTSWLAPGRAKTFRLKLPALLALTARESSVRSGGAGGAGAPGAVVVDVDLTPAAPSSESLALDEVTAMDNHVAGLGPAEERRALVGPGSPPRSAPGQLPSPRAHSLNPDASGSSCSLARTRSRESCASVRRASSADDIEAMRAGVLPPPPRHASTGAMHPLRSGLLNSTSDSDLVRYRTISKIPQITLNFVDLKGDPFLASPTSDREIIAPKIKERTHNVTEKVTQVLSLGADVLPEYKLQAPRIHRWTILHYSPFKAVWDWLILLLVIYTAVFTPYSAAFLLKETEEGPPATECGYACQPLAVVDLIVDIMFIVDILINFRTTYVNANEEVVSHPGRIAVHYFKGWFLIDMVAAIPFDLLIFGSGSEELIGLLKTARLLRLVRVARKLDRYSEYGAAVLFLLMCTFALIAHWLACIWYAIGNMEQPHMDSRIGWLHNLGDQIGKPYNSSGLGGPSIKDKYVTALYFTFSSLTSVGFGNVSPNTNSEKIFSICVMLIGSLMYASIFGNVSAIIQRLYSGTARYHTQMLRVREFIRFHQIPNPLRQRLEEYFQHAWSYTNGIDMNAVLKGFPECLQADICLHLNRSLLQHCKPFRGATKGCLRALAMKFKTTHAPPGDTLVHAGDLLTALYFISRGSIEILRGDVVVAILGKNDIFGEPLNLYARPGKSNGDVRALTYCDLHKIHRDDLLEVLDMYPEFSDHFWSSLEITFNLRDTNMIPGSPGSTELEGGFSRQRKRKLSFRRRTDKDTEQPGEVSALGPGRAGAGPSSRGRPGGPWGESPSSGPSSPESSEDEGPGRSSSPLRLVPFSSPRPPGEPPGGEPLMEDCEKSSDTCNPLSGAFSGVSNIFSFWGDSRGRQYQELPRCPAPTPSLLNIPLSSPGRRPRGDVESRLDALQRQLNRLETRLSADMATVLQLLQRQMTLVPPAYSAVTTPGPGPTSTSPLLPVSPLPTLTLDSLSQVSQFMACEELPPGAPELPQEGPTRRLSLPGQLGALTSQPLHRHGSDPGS
row,Compound,"hERG current change (%, negative = inhibition) at 10uM [%]"
1,Cl.Cn1c(=O)c2c(ncn2CCNC2=NCCCCC2)n(C)c1=O,5.44
2,CCOc1ccc2nc3sc(C(=O)N4CCOCC4)c(N)c3cc2c1,-5.89
3,CCSc1nnc(COc2ccccc2)n1CC,6.43
4,CC(C)CC(NC(=O)OC(C)(C)C)c1cn([C@@H](Cc2cc3ccccc3[nH]2)C(=O)N2CCN(C(=O)OC(C)(C)C)CC2)nn1 (some centres unmarked),-9.1
5,Cc1cc(N2CCN(C(=O)OC(C)(C)C)CC2)n2ncnc2n1,-27.5
6,COc1ccc2c(c1)c(=O)c(C(=O)c1ccc(F)cc1)cn2CC(=O)Nc1ccc(F)cc1,-5.61
7,CCn1c(CNC(=O)c2ccc(F)cc2)cc2ccccc21,6.31
8,COc1ccc(OCc2nn[nH]n2)cc1,15.9
9,CCOc1ccccc1NC(=O)NCc1ccccc1,0.101
10,CCOC(=O)c1c(C)[nH]c(C(=O)CN2CCN(CC)CC2)c1C.O=C(O)C(=O)O,8.52
11,CC1(/[N+]([O-])=C/c2ccc(F)cc2)CCCCC1=O (centres unmarked),6.1
12,Cc1ccc(NC(=O)C(NC2CCCc3ccccc32)c2ccccc2)cc1Cl.O=C(O)C(=O)O (centres unmarked),-3.44
13,Cc1ccc(OP(=O)(O)Oc2ccc(C)cc2)cc1,2.09
14,COc1ccc(CN2C[C@H](C)[C@@H](CC(=O)NCc3ccccc3)C2=O)cc1,-10.7
15,Nc1nonc1-n1nnc(C(=O)N/N=C/c2ccc(Cl)cc2)c1-c1ccc2c(c1)OCO2,28.7
16,S=C(c1ccc(Br)cc1)N1CCN(Cc2ccccc2)CC1,-36.3
17,Cc1ccc(C)c(-n2c(-c3ccncc3)n[nH]c2=S)c1,16.9
18,COc1ccc(NS(=O)(=O)c2ccc3oc(Nc4ccc5c(c4)OCCO5)nc3c2)cc1,-12.7
19,Cc1ccc2nc(-c3ccc(NC(=O)C(C)Sc4nncs4)cc3)sc2c1 (centres unmarked),9.19

row,Compound,"hERG current change (%, negative = inhibition) at 10uM [%]"
1,NS(=O)(=O)c1ccc(NC(=O)c2cc(Cl)ccc2Cl)cc1,14.4
2,CCCCn1nc(NC(=O)CC)c2cc3cc(OC)ccc3nc21,-11.2
3,COC(C[C@@H](O)C[C@@H](O)[C@H](C)OCc1ccccc1)OC,12.2
4,Cn1c2ccccc2c2cc(/C=N/NC(=O)c3ccccc3F)ccc21,19.7
5,COc1ccc(-c2cc(=O)[nH]c3ccccc23)cc1,5.09
6,CCc1nnc(N2C(=O)c3cccc4cccc(c34)C2=O)s1,4.47
7,CC(NC(=O)CCCCCNC(=O)N1CCn2c1nc1ccccc12)c1ccccc1 (centres unmarked),-26.3
8,Cc1cc(OCC(=O)NC(Cc2c[nH]c3ccc(O)cc23)C(=O)O)c2c(C)c(C)c(=O)oc2c1 (centres unmarked),16.9
9,O=C(CC1SC(=O)N(c2ccccc2)C1=O)Nc1ccccc1 (centres unmarked),14.4
10,CCn1c2ccccc2c2cc(/C=N/NC(=O)c3cc(O)cc(O)c3)ccc21,6.41
11,O=c1oc2ccccc2c(Nc2cccc(O)c2)c1[N+](=O)[O-],-2.92
12,CCCCNC(=O)/C(C#N)=C/c1ccc2c(c1)OCCO2,14.3
13,CCOc1ccc(NS(=O)(=O)c2c(C)nc3sc(CC)nn3c2=O)cc1,-14.5
14,Cc1cc(=O)n2cccc(O)c2n1.Cl,21.3
15,COc1cccc(CN(Cc2ccco2)C(c2ccc(F)cc2)c2nnnn2C(C)(C)C)c1 (centres unmarked),1.81
16,CC(NC(=O)C1CCC(CNS(=O)(=O)c2ccc3c(c2)C(C)(C)C(=O)N3C)CC1)c1ccccc1 (centres unmarked),-5.18
17,CC(=O)O.O=S(=O)(Cc1ccccc1)N1CCNCC1,14
18,O=C(N/N=C/c1ccc(-c2ccccc2[N+](=O)[O-])o1)c1cccnc1,-33
19,CNC(=S)N(CCc1ccc(S(N)(=O)=O)cc1)C1CC(=O)N(c2ccccc2F)C1=O (centres unmarked),-1.12

row,Compound,"hERG current change (%, negative = inhibition) at 10uM [%]"
1,O=C(/C=C/c1ccc(S(=O)(=O)N2CCOCC2)cc1)NCc1ccccc1Cl,4.53
2,Nc1c(C(=O)NCCN2CCOCC2)c2nc3ccccc3nc2n1-c1ccccc1,-52
3,O=C(NNC(=O)c1cc2cc(Br)ccc2oc1=O)c1ccc(O)cc1,2.69
4,CC(C)(C)OC(=O)N/N=C/c1ccc(N2CCOCC2)s1,3.77
5,CS(=O)(=O)N(CC(=O)Nc1ccc(F)cc1F)c1cccc([N+](=O)[O-])c1,-28.7
6,CN(C)CCCC(=O)c1ccc2c(c1)OCO2.Cl,4.44
7,Cc1ccc(S(=O)(=O)N(CC(=O)Nc2ccccc2C(=O)O)c2ccccc2C)cc1,15
8,Cc1ccc(-c2nc3ccccc3c(=O)n2NC(=O)COc2ccccc2)cc1,7.37
9,O=C(CN1CCCCCC1)Nc1ccc(F)c(F)c1.O=C(O)C(=O)O,-22.4
10,Cc1[nH]nc2c1C(c1ccc(-c3ccc(Cl)cc3)o1)C(C#N)=C(N)O2 (centres unmarked),-1.84
11,COc1cc(OC)cc(C(=O)NNC(=O)c2ccc(S(=O)(=O)N(C)c3ccccc3OC)cc2)c1,3.39
12,Cc1ccccc1NC(=O)c1onc2c1CCCC2,0.172
13,O=C(NCc1ccccc1CN1CCCC1)c1cccc(N2CCCC2=O)c1,-3.11
14,C(=N\N=C\c1ccncc1)/c1ccncc1,0.858
15,CCCC1CC(CCc2ccccc2)OS(=O)(=O)N1 (centres unmarked),-11.2
16,COc1ccc(-c2cn3ccc(C)cc3n2)cc1,-28.4
17,O=C(CSc1nccn1-c1ccccc1)NCc1ccc(F)cc1,-10.3
18,O=S(=O)(c1ccc(NC(=S)Nc2ccc(OC(F)F)cc2)cc1)N1CCOCC1,-27.7
